Screen size: about 150,000 compounds; about 540 (0.36%) showed an effect of 50% or more. This is one part of the list.

This assay relates to Plasmodium falciparum. Briefly: Primary screen in NF54 nanoGlo assay, in single point, at 2uM, 72h; a lower Z score goes with more inhibition. Format: functional, Erythrocyte. The following applies: timepoint 72 hour.
One may read the % Inhibition as the relative decrease from the control value, in per cent. Regarding `O=C(Cc1cccc(N(Cc2ccc(F)cc2)C(=O)c2ccc(Cl)cc2)c1)NCc1ccc(F)cc1`, the “% Inhibition” value is -3% and the Z score is listed as 0.53.

On to `O=C(O)CN1CCCCC(N2CCCC3(CCCc4ccccc43)C2)C1=O` (stereo not drawn), for which the “% Inhibition” value was -7% and the Z score came out at 1.1.

On to `Cc1ccc(-c2nc3cc(C(=O)N4CCC(CC(=O)N5CCCCCC5)CC4)ccc3o2)cc1`, for which the “% Inhibition” value is -19% and the Z score was determined as 2.26.

Turning to `CCOc1ccc(Cl)cc1CN[C@@H](CC)CO`, the “% Inhibition” value is given as 31% and the Z score is -3.46.

Turning to `Cc1ccccc1OCCn1cc(C(N)=O)c(-c2ccccc2)n1`, the “% Inhibition” value is -6% and the Z score turned out to be 0.62.

Consider `N#Cc1c(NCc2ccco2)ncnc1N1CCCC1`, for which the “% Inhibition” value is -8% and the Z score is on record as 0.85.

In the case of `Cc1cc(F)ccc1-c1nc(-c2cc(N3CCN(C)CC3)ccn2)no1`, the “% Inhibition” value was -6% and the Z score is 0.59.

On to `COc1ccc(-c2nn(-c3ccccc3Cl)c(N)c2NC(=O)NC2CCCCC2)cc1`, for which the “% Inhibition” value is -8% and the Z score amounted to 1.55.

Consider `CC(=O)N(Cc1ccc2c(c1)OCO2)c1cccc(-c2nc3ccccc3o2)c1`, for which the “% Inhibition” value was determined as 40% and the Z score is -5.18.

For the molecule `Cc1csc(-c2cc(S(=O)(=O)NC3CCCCC3)cn2CC(=O)N2CCCCC2)n1`, the “% Inhibition” value is reported as -12% and the Z score was 1.38.

Regarding `O=C(N[C@H]1CCOC2(CCCC2)C1)c1ccc2nccnc2n1`, the “% Inhibition” value was -10% and the Z score amounted to 1.3.

On to `CC[C@H](Nc1cc([C@H]2C[C@H](N)C2)nc(C2CC2)n1)c1ccccc1`, for which the “% Inhibition” value is 5% and the Z score was -0.7.

As for `CCOc1ccccc1CN(Cc1ccc2nonc2c1)C1CC1`, the “% Inhibition” value is 1% and the Z score was -0.15.

For the molecule `CC(C)O[C@H]1CN(C(=O)c2ccc3nc(-c4ccccc4)cn3c2)C[C@@H]1O`, the “% Inhibition” value is recorded as -7% and the Z score was 1.09.

For the molecule `O=C([C@H]1CCCN(C2CCN(Cc3ccncc3)CC2)C1)N1CCCCCC1`, the “% Inhibition” value is given as -11% and the Z score was determined as 2.2.

Consider `O=S(=O)(NCC[C@H]1CN(C2CCCCCC2)CCO1)C1CC1`, for which the “% Inhibition” value is listed as -2% and the Z score was found to be 0.33.

Take `CCn1nc(C=Cc2ccncc2C#N)c2ccccc21`: the “% Inhibition” value is -13% and the Z score is given as 1.13.

For the molecule `Nc1c(Oc2ccccc2F)ncnc1N1CCCC1`, the “% Inhibition” value was determined as 10% and the Z score is recorded as -1.7.

Regarding `CC(=O)Nc1cccc(C(=O)N2CCC2)c1`, the “% Inhibition” value was determined as 12% and the Z score is reported as -1.59.

In the case of `Cc1nn(-c2ccccc2)c(Oc2ccccc2)c1CN(CC1CC1)C(=O)c1ccco1`, the “% Inhibition” value is -15% and the Z score was determined as 1.44.

Take `Cc1cc(F)ccc1-c1cccc(C(=O)N2C[C@H]3C[C@H](O)[C@H](O)C[C@H]3C2)c1`: the “% Inhibition” value is on record as 4% and the Z score is -0.57.

Take `CCN1C(=O)c2cc(NC(=O)c3ccc(C)cc3)ccc2Oc2ccccc21`: the “% Inhibition” value is -3% and the Z score is reported as 0.32.

As to `O[C@@H](CNc1ccc(Br)cn1)c1ccncc1`, the “% Inhibition” value turned out to be 0% and the Z score was -0.03.

As for `O=C1NCC2(CCN(c3ncnc4[nH]ccc34)CC2)Oc2ccccc21`, the “% Inhibition” value is reported as -1% and the Z score turned out to be 0.21.

As for `CC[C@H](O)c1cc2n(n1)CCN(c1ncc(F)c(N3CCOCC3)n1)C2`, the “% Inhibition” value amounted to 6% and the Z score was -0.87.

In the case of `O=C(NCc1ccco1)c1cccnc1`, the “% Inhibition” value was -8% and the Z score came to 1.02.

For the molecule `O=C1CC[C@@H](c2nc(-c3ccc(F)cc3F)no2)c2ccccc21`, the “% Inhibition” value turned out to be 15% and the Z score is on record as -1.81.

As for `Cc1nc(NC(=O)c2cnn3c2OCCC3)sc1C`, the “% Inhibition” value is on record as -7% and the Z score is on record as 1.15.

Take `Cc1cccc(NC(=O)CN(C)c2ccc(C#N)nn2)c1C`: the “% Inhibition” value was -9% and the Z score is reported as 1.51.

Take `COc1cccc(N2CCN(c3nc(-c4ccccc4F)no3)CC2)c1`: the “% Inhibition” value is recorded as -6% and the Z score stood at 0.95.

Take `N=C(NC1CCCCC1)c1ccc(Cl)cc1`: the “% Inhibition” value is 10% and the Z score is listed as -1.28.

Regarding `Cn1ccnc1C1(O)CN(c2nc3cc(Cl)cc(Cl)c3o2)C1`, the “% Inhibition” value was determined as 11% and the Z score is reported as -1.66.

Consider `COc1ccccc1NS(=O)(=O)c1cc(-c2csc(C)n2)ccc1OC`, for which the “% Inhibition” value was -2% and the Z score came to 0.32.

In the case of `Cc1c(C2(c3c(C)n(C)n(-c4ccccc4)c3=O)C(=O)Nc3ccc(F)cc32)c(=O)n(-c2ccccc2)n1C`, the “% Inhibition” value worked out at 7% and the Z score is -1.33.

For `Cc1cc(=O)[nH]c(=O)n1Cc1cccs1`, the “% Inhibition” value turned out to be 8% and the Z score was -0.94.

In the case of `O=C(NCc1nsc2ccccc12)c1ccoc1C1CC1`, the “% Inhibition” value is given as -4% and the Z score is on record as 0.45.

As to `CCNC(=O)[C@H]1CCCN(c2nc3ncn(CC(=O)NCc4ccco4)c(=O)c3s2)C1`, the “% Inhibition” value was -18% and the Z score turned out to be 1.62.

`CC(C)c1noc(NC2CCCC2CNC(=O)OC(C)(C)C)n1` (stereo not drawn): the “% Inhibition” value was -7% and the Z score is 0.89.

Regarding `CC1CC1N1CC(NC(=O)N2CCCC2C2CCCO2)CC1=O` (stereo not drawn), the “% Inhibition” value is reported as -8% and the Z score came out at 1.01.

Regarding `COc1ccc(CCN2C[C@H](O)C(C)(C)COCCC[C@H]3CN(Cc4csnn4)CC[C@H]3CC2=O)cc1`, the “% Inhibition” value is on record as -8% and the Z score is 1.2.

Consider `Cc1nocc1S(=O)(=O)NCCc1ccns1`, for which the “% Inhibition” value is -17% and the Z score was determined as 1.84.

With `O=C(NCc1cccnc1)[C@H]1CC(=O)N(Cc2cc(C(F)(F)F)cc(C(F)(F)F)c2)C1`, the “% Inhibition” value was -14% and the Z score is given as 2.25.

On to `Cc1cnc(C)c(N2CCC(c3nc(-c4ccccn4)no3)CC2)n1`, for which the “% Inhibition” value is -12% and the Z score stood at 1.22.

Take `O=C(Nc1nc2ccc(S(=O)(=O)N3CCCCC3)cc2s1)[C@@H]1CCCO1`: the “% Inhibition” value is -9% and the Z score is 1.63.

For `CCOC(C)(C)c1nc(Cc2cccc(Cl)c2)n[nH]1`, the “% Inhibition” value is recorded as -10% and the Z score came out at 2.01.

On to `CN(C)S(=O)(=O)c1ccc(COc2ccccc2C(=O)Nc2cc(F)ccc2F)o1`, for which the “% Inhibition” value is recorded as -8% and the Z score was determined as 1.11.

For the molecule `c1ccc2oc(-c3nnc(N4CCOCC4)[nH]3)cc2c1`, the “% Inhibition” value is listed as 10% and the Z score is -1.28.

As for `CC(C)c1ccc([C@@H](O)Cn2nc(N3CCCC3)sc2=S)cc1`, the “% Inhibition” value is listed as 8% and the Z score is on record as -0.94.

As for `CN(C)c1cccc(Oc2nnnn2[C@H]2CO[C@H]3[C@@H]2OC[C@@H]3NC(=O)c2ccccc2)c1`, the “% Inhibition” value is on record as -2% and the Z score was found to be 0.2.

`Cc1ccc(=O)n(CC(=O)N2CCN(c3ccc(F)cc3)CC2)n1`: the “% Inhibition” value is 23% and the Z score was -2.99.

In the case of `Cc1cnc(C(=O)N2CCc3[nH]c(-c4cn[nH]c4)nc3C2)cn1`, the “% Inhibition” value is -1% and the Z score is given as 0.18.

In the case of `Cn1nccc1COc1ccc(N)cc1F`, the “% Inhibition” value came out at 3% and the Z score is given as -0.47.

As to `CCOC(=O)N1CCN(C(=O)c2snc(-c3ccccn3)c2NC(=O)CC)CC1`, the “% Inhibition” value is reported as -6% and the Z score worked out at 0.63.

Take `C[C@](O)(CNS(=O)(=O)c1cccs1)c1ccc2c(c1)OCO2`: the “% Inhibition” value is -3% and the Z score is reported as 0.56.

Consider `Cc1nccn1CCCN(C)[C@@H](C)c1nc2ccccc2c(=O)[nH]1`, for which the “% Inhibition” value is given as -13% and the Z score was 2.45.

With `CCOc1cc(C2Nc3ccc(C)cc3C(OC(C)=O)C2(C)C)ccc1OCc1ccccc1Cl` (stereo not drawn), the “% Inhibition” value was determined as 6% and the Z score is listed as -1.18.

As for `CC(C)=CCN1CC2(CCN(C(=O)c3ncccc3O)CC2)CC1=O`, the “% Inhibition” value was -4% and the Z score was 0.45.

Turning to `CCCNC(=O)[C@H]1CCc2ncc(-c3ccc(OC)cc3)n2C1`, the “% Inhibition” value is recorded as -9% and the Z score was found to be 1.72.

As to `CO[C@H]1CCCN(S(=O)(=O)c2ccc3[nH]c(=O)c(C)cc3c2)C1`, the “% Inhibition” value is reported as 20% and the Z score was -2.31.

For the molecule `CCS(=O)(=O)N1C[C@@H]2CN(C(=O)c3cc(C)on3)C[C@]2(c2nc(C)no2)C1`, the “% Inhibition” value is on record as -6% and the Z score was determined as 0.83.

In the case of `O=C(NCc1cnn(CC2CCC2)c1)[C@H]1CCO[C@@H]1c1cccnc1`, the “% Inhibition” value is listed as -4% and the Z score was found to be 0.57.

On to `Clc1ccc(OCc2ccccc2Cl)c(CNc2ccc(Oc3ccccc3)cc2)c1`, for which the “% Inhibition” value is 35% and the Z score is -3.97.

Regarding `O=C(CN(C[C@H]1CCOC1)C1CC1)Nc1nc2ccccc2s1`, the “% Inhibition” value is reported as -8% and the Z score was determined as 1.28.

With `O=C(O)c1cccc2[nH]c(C3CC3)nc12`, the “% Inhibition” value is -6% and the Z score was 0.74.

For the molecule `CCn1ncnc1CN[C@H]1CC=CC[C@@H]1C(N)=O`, the “% Inhibition” value is -3% and the Z score was 0.34.

As to `COCCc1noc([C@H](C)NC(=O)c2cnn[nH]2)n1`, the “% Inhibition” value was -9% and the Z score is on record as 1.28.

On to `CC(=O)Nc1ccc(CN2CC[C@H](c3nc4ccccc4[nH]3)C2)cc1`, for which the “% Inhibition” value was 26% and the Z score was -3.05.

As for `Cc1cc2nc(-c3cccs3)cc(C(=O)N3CCC[C@H](C)C3)c2cc1C`, the “% Inhibition” value is -8% and the Z score worked out at 1.14.

As for `CCN(CC)C(=O)c1cc(C(C)(C)C)n2nc(C)nc2n1`, the “% Inhibition” value is -15% and the Z score was 2.1.

Consider `COc1cc(OC)cc(-c2nc(-c3cccc(-c4ccnn4C)c3)no2)c1`, for which the “% Inhibition” value is recorded as -7% and the Z score was found to be 0.83.

As for `CCn1nccc1CN(C)CCc1scnc1C`, the “% Inhibition” value is recorded as -3% and the Z score came out at 0.63.

Turning to `COCCc1nnc(C2CCN(Cc3ccco3)CC2)[nH]1`, the “% Inhibition” value was 0% and the Z score was -0.07.

Consider `CN(CC(O)C(F)(F)F)S(=O)(=O)CC1CCCO1` (stereo not drawn), for which the “% Inhibition” value is on record as -3% and the Z score was determined as 0.4.

`C[C@H](NS(=O)(=O)c1ccc(F)cc1F)c1cc(F)ccc1N1CCN(C)CC1`: the “% Inhibition” value is -1% and the Z score came out at 0.1.

For `Cc1ccc(C(=O)N2CC[C@H](c3nc(N(C)C)ncc3C(=O)NC(C)C)C2)cn1`, the “% Inhibition” value is listed as -3% and the Z score is 0.38.

For `COCC(=O)N[C@@H]1CN(Cc2ccc(C)s2)CC[C@@H]1CO`, the “% Inhibition” value is reported as 3% and the Z score is recorded as -0.58.

For the molecule `O=S(=O)(NC1C2CCC(C2)C1CO)c1cccc2c1N=S=N2` (stereo not drawn), the “% Inhibition” value is 5% and the Z score is reported as -0.9.

As for `CCc1[nH]nc(N[C@@H](C)C2CCOCC2)c1C`, the “% Inhibition” value was -4% and the Z score came to 0.61.

Consider `O=C(NCc1ccccc1)c1cc(NC2CCC(O)CC2)ccn1` (stereo not drawn), for which the “% Inhibition” value was 31% and the Z score is given as -3.5.

`N#Cc1cccc(CN2CCC[C@H](c3nnc(C4CC4)[nH]3)C2)c1`: the “% Inhibition” value was -5% and the Z score is on record as 0.55.

For `COCCn1cc(S(=O)(=O)N(Cc2ccccc2)Cc2ccccc2)ccc1=O`, the “% Inhibition” value is reported as -2% and the Z score worked out at 0.47.

For `CC(C(=O)Nc1nccs1)N1CCCC(c2ccn[nH]2)C1` (stereo not drawn), the “% Inhibition” value was determined as 50% and the Z score is -9.08.

Take `C[C@@H](C1CC1)n1nccc1NCc1ccc(Cl)cc1`: the “% Inhibition” value stood at 34% and the Z score was -3.85.

As to `Cc1nnsc1C(=O)Nc1nn(C)c2c1C[C@H](C)C(=O)N2`, the “% Inhibition” value came to 16% and the Z score is on record as -2.08.
